Measured values published in the BET-seq Pho4 binding data (Le et al. 2018).
The list shows a part of the results. The energies were worked out here from pooled read counts, against the library average; single values are noisy.

The sequences below were run against T1, Pho4 (S. cerevisiae) (UniProt P07270) (assay: relative binding free energy (BET-seq); higher = weaker binding). Conditions: reference: library average.
T1 sequence: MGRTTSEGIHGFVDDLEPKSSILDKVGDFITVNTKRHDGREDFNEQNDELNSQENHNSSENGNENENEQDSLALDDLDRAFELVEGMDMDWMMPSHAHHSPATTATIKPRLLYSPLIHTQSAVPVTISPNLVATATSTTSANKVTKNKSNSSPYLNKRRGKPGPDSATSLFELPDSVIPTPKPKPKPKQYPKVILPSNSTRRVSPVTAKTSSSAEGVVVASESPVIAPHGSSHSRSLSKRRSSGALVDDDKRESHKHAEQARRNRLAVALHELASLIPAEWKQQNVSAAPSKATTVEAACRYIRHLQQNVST

Sequence	relative binding free energy [kcal/mol]
CGGCTCACGTGTGGGG	0.23
TGGGACACGTGGCGGT	-0.08
GGGTGCACGTGTCCGG	-0.16
CTTGTCACGTGTCAGG	0.17
CTGTTCACGTGATCGT	0.33
GACGGCACGTGGGTGT	-0.2
GTTTACACGTGGGATT	0.13
TATGGCACGTGGGTGT	-0.28
ATTCTCACGTGATTTT	0.33
ATAGTCACGTGAGAAT	0.29
AGGGTCACGTGCATAG	0.07
TGAATCACGTGGGCAG	0
ATGAACACGTGGAGGA	0.12
CGTTTCACGTGTCGGG	0.3
AGCTTCACGTGTTTGT	0.34
TGAGGCACGTGTTGTA	-0.15
AAGTACACGTGTGGGT	0.18
AGAAGCACGTGGTGAA	0.01
GCTGGCACGTGGTCGT	-0.18
GGCGGCACGTGATTAG	0.08
TGTTACACGTGGGCAG	0.03
CTACTCACGTGTTGTG	0.17
TAATTCACGTGGGTTC	0.25

Sequence	relative binding free energy [kcal/mol]
ATTGGCACGTGTGTGA	-0.07
CTGTTCACGTGAGTGG	0.36
AGATTCACGTGACTTG	0.46
GTAGGCACGTGAGGCA	0.14
TGGTTCACGTGCGATT	0.25
GTAGACACGTGGAAGG	0.08
TGTTCCACGTGAGGAT	0.37
ATCGCCACGTGTAGGT	0.09
AGTAACACGTGGAGGA	-0.07
AGGGTCACGTGGTCAT	-0.05
GCCTGCACGTGAGGGT	0.19
AAGGGCACGTGATGAG	-0.06
TTGTCCACGTGATTGG	0.15
CATGTCACGTGGGAGG	-0.01
ATTTTCACGTGTTCTC	0.32
GTTGCCACGTGTAAGG	0.12
AGGGGCACGTGTCTTG	-0.15
TGACGCACGTGGGCGG	-0.32
CGTAGCACGTGTGGAT	-0.11
TTTATCACGTGGTACT	-0.03
TAAGGCACGTGAATGG	0.11
GGGGGCACGTGGGAGG	-0.23
TTTGTCACGTGAACTG	0.25

Sequence	relative binding free energy [kcal/mol]
GGCAACACGTGGTGGA	0.03
GGGAGCACGTGGAGAT	-0.11
GGTAACACGTGGATTT	0.06
GTCTTCACGTGTATGT	0.38
GAAGCCACGTGTGGTG	-0.01
GGTGGCACGTGGGCAA	-0.48
GTTGGCACGTGACGTA	-0.08
TGTTTCACGTGCCTTG	0.31
TGCTACACGTGTGGTT	0.14
CTTGGCACGTGAGGTA	0.11
CTGGGCACGTGTATAT	-0.03
ATGAGCACGTGGCGGT	-0.05
TTCTACACGTGGTTTA	0.13
GGAGGCACGTGGTGTA	-0.22
GATGGCACGTGGGTCT	-0.18
ATAGTCACGTGTACGT	0.1
GGCTTCACGTGTAGGC	0.35
TCATGCACGTGGGGTA	-0.26
ATGTACACGTGTAATA	0.11
GGTATCACGTGTAATA	0.16
TTATCCACGTGGGTGT	-0.14
TCGTTCACGTGTGTAA	0.2
GTAGTCACGTGACGTT	0.26

Sequence	relative binding free energy [kcal/mol]
TGAATCACGTGTCGAT	0.35
TAATACACGTGGAGTT	-0.02
ATGTGCACGTGGCGCA	-0.15
GATGTCACGTGTGTAG	0.17
CTAGCCACGTGGGGGG	-0.37
TTAGCCACGTGAGAGT	0.09
GGGTACACGTGAAGTT	0.29
ATGGTCACGTGATCGT	0.14
TGGTGCACGTGCTGGC	-0.21
TGTTGCACGTGAAATA	0.2
GAGAACACGTGGCGGG	0.05
TTGTCCACGTGGGTGT	-0.08
ATTTACACGTGGTCGT	0
GCTGTCACGTGTGTAT	0.23
ATTCTCACGTGTGGGA	0.18
TGGTTCACGTGGTCTC	0.31
ATCTTCACGTGAGTTT	0.26
GCGGGCACGTGCGGAG	-0.05
ATATGCACGTGTGTAT	-0.07
TCTTTCACGTGGGTAA	0.04
TGGCGCACGTGGGTCT	-0.19
GTTTACACGTGTGTGG	0.22
TTAAGCACGTGATGGT	0.02

Sequence	relative binding free energy [kcal/mol]
TATAGCACGTGTCGTT	-0.06
GGGAGCACGTGGAGGG	-0.17
TAGATCACGTGAGTCG	0.23
ATGTGCACGTGACGTT	0.09
TAGAGCACGTGGTTGT	-0.12
AATTTCACGTGATAGG	0.36
TGTATCACGTGACGAG	0.16
GAGGTCACGTGGAAGG	0.21
TTGGTCACGTGCAGCT	0.07
CTAGTCACGTGCGTTG	0.07
TCTTTCACGTGTATCT	0.35
GTATGCACGTGTTTGT	0.02
CGGGGCACGTGGTCTT	-0.32
TGCCGCACGTGTGTGG	-0.07
GTATCCACGTGTAGGT	0.18
ATAGGCACGTGAGGGA	0.14
ATTGACACGTGGATAT	0.16
TGTGCCACGTGGGTTG	-0.21
GATGTCACGTGTGAGA	0.37
TTTCGCACGTGTCGTT	0
ATATTCACGTGTATAA	0.13
GAGCTCACGTGTTGGA	0.41
GCGGGCACGTGATTGG	-0.02
